The campaign covered roughly 120,000 compounds. About 5,300 (4.4%) were called active. Inconclusive means that the source gave no clear call. Such entries were picked first, then a sample of the others. Calls follow the shape of the dose curve; as a rule, active = well fitted inhibition curve with a large enough effect; inconclusive = small, poorly fitted or top-dose-only effect; inactive = no such curve, though single readings can be large or run the other way. A potency beside an inconclusive call is a rough fit, not a confirmed value.
Assay: qHTS Primary assay for Inhibitors of Plasmodium falciparum Dd2 growth in vitro; also: nearly all actives have a fitted effect of over 65% in size;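 as to activity, negative = inhibition: plate controls were DMSO vehicle for no effect and reference drug for full effect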
Settings: P. falciparum Dd2 growth, SYBR Green, 72 h; activity, negative = inhibition: at 28.9 µM (top of the series) unless noted; series mostly up to 28.9 µM
Summary of the method: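 Readout: SYBR Green fluorescence, 485 nm excitation, 535 nm emission, after ~16 h lysis at 37C. Before that, Dd2-infected red cells (2.5% hematocrit) grew 72 h with compound, 29 uM top final concentration.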
Potency is read from the fitted curve at half-maximal effect; tags tell the direction and shape of the fitted curve.

Structure (SMILES)	Potency	activity, negative = inhibition
Cc1nn(C(=O)CCCC(=O)N2CCCC2c2nc(C3CCOCC3)no2)c2ccccc12 (stereo unspecified)	inconclusive: 0.891 µM [inhibitor, full curve, poor fit]	–
CCN(CC)C(=O)C[C@@H]1c2nc(NC(=O)c3cccc(F)c3)sc2C[C@@H]2[C@](C)(CO)[C@H](O)CC[C@]21C	inconclusive: 1.41 µM [inhibitor, full curve, poor fit]	–
CN(CC(O)COc1ccccc1CN1CCCOCC1)C1CCCCC1 (stereo unspecified)	inconclusive: 4.47 µM [inhibitor, partial curve]	–
Cc1ccc(NC(=O)c2ncoc2-c2ccco2)cc1Cl	inactive	–
O=C(CCC[C@@H]1[C@H]2CCCN3CCC[C@@H](CN1Cc1ccccc1)[C@@H]23)Nc1cccnc1	inconclusive: 11.2 µM [inhibitor, partial curve, poor fit]	–
O=C(COc1ccc(F)cc1)N1CC(c2nnc(-c3ccncc3)o2)C2(CCOCC2)C1 (stereo unspecified)	inconclusive: 11.2 µM [inhibitor, partial curve, poor fit]	–
CCOc1ccc(-c2nnc(SCC(=O)c3ccccc3)n2-c2ccccc2)cc1	inactive	–
COc1ccc(C(=O)Nc2ccc3oc(-c4ccc5ccccc5c4)nc3c2)cc1Br	inconclusive: 3.98 µM [inhibitor, partial curve, poor fit]	–
CN1C(=O)CCC2(CNC(=O)c3n[nH]c4ccccc34)CCC=C12 (stereo unspecified)	inconclusive: 5.01 µM [inhibitor, partial curve, poor fit]	–
CN1CC(=O)N(C2CCCNC2)Cc2c(NC3CCC3)ncnc21 (stereo unspecified)	inactive	–
CCOc1ccc(NC(=O)C2CCN(S(=O)(=O)c3c(C)noc3/C=C/c3cccs3)CC2)cc1	inconclusive: 10 µM [inhibitor, single point]	–
O=C(CNC(=O)c1ccccc1F)OCc1cc(=O)n2nc(C3CCCCC3)sc2n1	inactive	–
CCOc1cc(=O)n2c(c1C(=O)NCc1ccccc1F)CCCCC2	inactive	–
CC1CCN([C@@H]2[C@H](O)[C@H](CO)O[C@@H]2CNC(=O)Nc2cccc(Cl)c2)CC1	inconclusive: 31.6 µM [inhibitor, single point]	–
CCCC(=O)N1Cc2ccccc2CC2(CCCN(Cc3ccc(O)cc3)C2)C1 (stereo unspecified)	inconclusive: 3.98 µM [inhibitor, partial curve]	–
O=C(NCC1CCOCC1)Nc1cc(F)c(F)c(F)c1	inconclusive: 4.47 µM [inhibitor, partial curve, poor fit]	–
Cc1nnc([C@H]2CCN(C(=O)c3ccccc3)C2)o1	inconclusive: 8.91 µM [inhibitor, single point]	–
O=S(=O)(c1ccc(-c2csc(=Nc3ccc(OC(F)(F)Cl)cc3)n2CCCO)cc1)N1CCCC1	active: 11.2 µM	–
CC(C)c1noc([C@@H]2C[C@H]3C(=O)NCCCCCCN(C(=O)c4ccncc4)[C@H]3C2)n1	inactive	–
COc1cccc(C(=O)N2CCC(N(C(C)=O)C3CCOCC3)CC2)c1	inactive	–
COc1ccc(-c2noc(Nc3cc(C)cc(C)c3)n2)cc1	inconclusive: 12.6 µM [inhibitor, partial curve, poor fit]	–
COc1ccc(C(=O)N2CCC3(CC2)CC(Cc2nc(C4CC4)no2)CCO3)c(OC)n1 (stereo unspecified)	inconclusive: 17.8 µM [inhibitor, single point]	–

Structure (SMILES)	Potency	activity, negative = inhibition
Cc1ccccc1S(=O)(=O)N1CCC2(CC1)CC1C(=O)NCCN1C2 (stereo unspecified)	inconclusive: 12.6 µM [inhibitor, single point]	–
O=C(c1ccc(Cn2ccn3nc4c(c3c2=O)CCCC4)cc1)N1CCN(c2ccccn2)CC1	inconclusive: 7.08 µM [inhibitor, partial curve, poor fit]	–
COCC(=O)N1CC[C@]2(O)CCN(C(=O)c3ccccc3N(C)C)C[C@@H]2C1	inactive	–
CC(C)NC(=O)c1ccnc(-c2cc(NC3CCCC3)nc3[nH]ccc23)c1	inconclusive: 8.91 µM [inhibitor, single point]	–
CCOc1ccccc1CNCc1c(C(=O)O)n(Cc2ccc(F)cc2)c2cc(C)ccc12	inconclusive: 3.98 µM [inhibitor, single point]	–
CCOc1ccccc1NC(=O)Nc1cc2c(cc1N1CCCCC1)n(CC)c(=O)n2CC	active: 11.2 µM	–
Cc1ccc(S(=O)(=O)N(C)Cc2ccccc2C(F)(F)F)cc1	inconclusive: 14.1 µM [inhibitor, single point]	–
CCOc1ccccc1C(=O)N1CCCC2(C1)NC(=O)N(Cc1ccc(Cl)cc1)C2=O (stereo unspecified)	inactive	–
CSc1ccc(CNC(=O)c2cc3c(=O)[nH]c(C)cn3n2)cc1	inconclusive: 7.94 µM [inhibitor, single point]	–
CN1CCC(O)(C(=O)N2C[C@@H](C(=O)O)[C@H](c3ccc(F)cc3)C2)CC1	inactive	–
O=C(c1cccc2[nH]ccc12)N1CCCC(n2cc(-c3nc(C4CC4)no3)nn2)C1 (stereo unspecified)	inconclusive: 2 µM [inhibitor, full curve]	–
Cc1ccc(NC(=O)CN2C(=O)c3ccccc3Sc3ccc(C(=O)N4CCOCC4)cc32)c(Cl)c1	inconclusive: 12.6 µM [inhibitor, single point]	–
CCN(C(=O)C1CCCN(c2ncnc3c2nc2n3CCCCC2)C1)c1cccc(C)c1 (stereo unspecified)	inconclusive: 5.01 µM [inhibitor, partial curve, poor fit]	–
O=C(Cc1cccc(F)c1)NC1CCN(c2cc(C(F)(F)F)ncn2)CC1	inactive	–
CCCc1nc(C)c(CNC2CCN(C(=O)c3ccccc3)CC2)s1	inactive	–
O=c1c2nc(-c3cccc(O)c3)ccc2ncn1C1CC1	inconclusive: 0.316 µM [inhibitor, full curve]	–
Cc1ccc(NS(=O)(=O)c2ccc3c(c2)[C@H]2C=CC[C@H]2[C@@H](c2ccc(F)cc2)N3)cc1C	inconclusive: 14.1 µM [inhibitor, single point]	–
Cc1ccc(C(=O)N2CCN(C3CCN(CCC(C)C)C3=O)CC2)cc1 (stereo unspecified)	inactive	–
Cn1nnnc1C1CCCN(C(=O)C2CC2)C1 (stereo unspecified)	inactive	–
COC(=O)c1sc2cccc(F)c2c1S(=O)(=O)Nc1ccc(C)cc1Cl	inactive	–
O=[S+]([O-])(c1ccccc1)N1CC2(COCCN(Cc3ccc4c(c3)CCO4)C2)C1	inconclusive: 1.41 µM [inhibitor, partial curve, poor fit]	–
CCc1nc2c(c(-c3ccc(OC)cc3)n1)CN(C(=O)c1ccccc1F)CC2	–	inconclusive: -48.7% [inhibitor]

Structure (SMILES)	Potency	activity, negative = inhibition
COc1ccc(-c2cc3c(cn2)CN(C)CCN3)cn1	inactive	–
COCc1noc([C@@H]2CN(Cc3cn(C)c4ccc(OC)cc34)C[C@H]2C(N)=O)n1	inconclusive: 11.2 µM [inhibitor, single point]	–
COc1ccccc1C(=O)N1CCCN(CCc2ccccc2)c2ccccc21	active: 11.2 µM	–
Cc1c(/C=C(\C#N)C(=O)Nc2cccc(Cl)c2)c2ccccc2n1Cc1ccccc1	inconclusive: 12.6 µM [inhibitor, single point]	–
CC(C)C(=O)N1CCC(Oc2cnc3c(ccn3-c3cncnc3)c2)CC1	inconclusive: 22.4 µM [inhibitor, single point]	–
COc1ccc(C(=O)c2cn(Cc3cccc(C)c3)c3cc4c(cc3c2=O)OCO4)cc1	inactive	–
CCc1noc(-c2cn(C3CCN(C(=O)c4cccc(OC(F)(F)F)c4)C3)nn2)n1 (stereo unspecified)	inactive	–
O=C(CC1=CCCCC1)N1CC(c2noc(C3CCCN3CC3CC3)n2)C1 (stereo unspecified)	inconclusive: 3.98 µM [inhibitor, single point]	–
CCCN(CCC)C(=O)[C@H]1CCC[C@H]1NC(=O)c1ccc(OC)nc1	inactive	–
C[S+](=O)([O-])N1CC2(CCN(C3COC3)CC2)Cc2ccccc21	inactive	–
Cc1ccccc1CN1CCC2(CC1)OC(=O)N(Cc1ccc(O)cc1)C2(C)c1ccccc1 (stereo unspecified)	inconclusive: 0.562 µM [inhibitor, partial curve, poor fit]	–
Cc1ncc(C(=O)NCc2ccc3[nH]c(-c4ccccc4F)c(C)c3c2)c(C)n1	inactive	–
COc1cccc(-c2ccc(CN)cc2)c1	inconclusive: 11.2 µM [inhibitor, single point]	–
Cc1nc2c(-c3ccccc3)c(C)nn2c(C)c1CCC(=O)Nc1ccccc1F	inactive	–
Cc1ccc(SCc2nc(-c3ccc(C(=O)Nc4cc(C)ccc4C)cc3)oc2C)cc1	inconclusive: 11.2 µM [inhibitor, single point]	–
COCCN[C@@H]1C[C@@H]2c3[nH]c4ccccc4c3C[C@@H](C(=O)OC)N2[C@H](c2ccc(Cl)c(F)c2)C1	inconclusive: 4.47 µM [inhibitor, full curve, poor fit]	–
CCOc1cc(-c2noc(-c3nnn4c3COC(c3ccc(Cl)cc3)C4)n2)ccc1OC (stereo unspecified)	inconclusive: 6.31 µM [inhibitor, partial curve, poor fit]	–
CCCc1nnc(C[C@@H]2C[C@@H](C(C)C)[C@H](CO)C=C2C)o1	inconclusive: 39.8 µM [inhibitor, single point]	–
O=C(CC1CCN(C(=O)c2ccccc2F)C1)NCc1ccccc1 (stereo unspecified)	inactive	–
COc1cc(OC)c(NC(=O)n2ncc3cc(Cl)ccc32)cc1Cl	inconclusive: 0.0282 µM [inhibitor, full curve]	–
COc1ccc2c(ccn2CCC(=O)Nc2ccc3c(c2)C(=O)N2CCC[C@H]2C(=O)N3)c1	inconclusive: 12.6 µM [inhibitor, single point]	–
COc1ccc(OC)c(NC(=O)CSC2=Nc3ccccc3C3=NC(CC(=O)NCc4ccc(F)cc4)C(=O)N23)c1 (stereo unspecified)	inconclusive: 8.91 µM [inhibitor, single point]	–
